Test results reported in PubChem BioAssay AID488969 (Vanderbilt High Throughput Screening Facility, 2010).
Over roughly 110,000 compounds, “z-score” has its median near -0.1; the highest 2% begin near 2. The list shows a part of the results. The source made the active and inactive calls.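 How the source made its calls: active means z-score in the third read window above 3 or below -3; inactive means the rest.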

What follows are compounds tested against Metabotropic glutamate receptor 8 (Rattus norvegicus) (UniProt P70579) (assay: mGluR8 Gi/Go-coupled signaling modulation – cell-based, rat, thallium flux, HTS, primary screen (AID 488969)). Settings: HEK293 rat mGluR8, GIRK (G protein-gated inwardly rectifying potassium channel) thallium flux, FluoZin2; at 10 µM; stronger effect = higher value; submaximal glutamate (EC20) added with thallium.
UniProt P70579, sequence (P70579 whole entry, looked up): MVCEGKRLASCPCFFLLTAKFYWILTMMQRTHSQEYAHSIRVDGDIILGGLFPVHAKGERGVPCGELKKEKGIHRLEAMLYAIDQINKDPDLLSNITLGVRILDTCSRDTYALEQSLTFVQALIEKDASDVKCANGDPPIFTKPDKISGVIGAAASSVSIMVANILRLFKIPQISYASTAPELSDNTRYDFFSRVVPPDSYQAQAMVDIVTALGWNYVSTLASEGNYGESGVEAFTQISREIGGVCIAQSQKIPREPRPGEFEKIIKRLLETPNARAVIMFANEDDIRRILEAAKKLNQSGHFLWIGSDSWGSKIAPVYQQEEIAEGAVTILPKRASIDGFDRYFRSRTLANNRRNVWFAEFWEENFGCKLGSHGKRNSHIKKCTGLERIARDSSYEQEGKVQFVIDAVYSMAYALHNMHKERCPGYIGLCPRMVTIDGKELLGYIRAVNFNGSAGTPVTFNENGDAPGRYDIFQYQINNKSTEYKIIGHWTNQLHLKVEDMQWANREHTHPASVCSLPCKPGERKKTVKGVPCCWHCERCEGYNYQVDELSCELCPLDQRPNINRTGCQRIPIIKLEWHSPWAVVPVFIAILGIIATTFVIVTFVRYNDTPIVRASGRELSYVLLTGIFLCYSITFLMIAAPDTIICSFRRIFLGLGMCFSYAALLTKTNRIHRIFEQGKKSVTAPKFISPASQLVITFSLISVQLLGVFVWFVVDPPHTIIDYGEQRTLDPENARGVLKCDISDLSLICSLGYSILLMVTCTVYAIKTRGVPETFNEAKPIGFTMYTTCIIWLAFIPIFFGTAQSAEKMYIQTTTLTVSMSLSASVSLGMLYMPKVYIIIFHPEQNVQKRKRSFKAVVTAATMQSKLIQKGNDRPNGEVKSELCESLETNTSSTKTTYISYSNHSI
`COC(=O)c1ccccc1NC(=O)C1CCN(C(=O)c2ccc(OC)cc2)CC1` showed a z-score of -0.394. `Cc1cc(C(F)F)n2nc(C(=O)Nc3ccccc3F)nc2n1` gave a z-score of 1.37. `COc1ccccc1CNS(=O)(=O)c1ccc(NC(C)=O)cc1` showed a z-score of -0.177. For `COc1ccccc1NNC(=O)C(O)(c1ccccc1OC)c1ccccc1OC`, the z-score was 0.0746. In the case of `Cc1cccc(N2CCN(C(=O)Cc3ccc(-n4c(=O)[nH]c5ccsc5c4=O)cc3)CC2)c1C`, the z-score was -0.128. In the case of `O=S(=O)(c1ccc(Cl)cc1)N1CCC(N2CCCCCC2)CC1`, the z-score was 0.613. In the case of `CCOC(=O)c1c(-c2ccccc2)csc1NC(=O)c1ccc(S(=O)(=O)N2CC(C)OC(C)C2)cc1` (centres undefined), the z-score was -1.62. With `COc1ccc(OCC(=O)NNC(=O)c2ccc(-c3ccccc3)cc2)cc1` the z-score was 0.411. `Cc1cc(-c2ccccc2)nc(SCc2ccc(C(=O)O)o2)n1` was tested, and the z-score was -0.597. `COc1ccc2nc(Nc3nc(C)c(CCC(C)C)c(=O)[nH]3)nc(C)c2c1` was tested, and the z-score was -0.996. `CC1(C)CC(C(CC(=O)O)c2ccccc2)CCO1` (centres undefined) gave a z-score of 0.185. Compound `CC(C)Cc1nnc(NC(=O)CCC(=O)N2CCN(S(=O)(=O)c3ccccc3)CC2)s1` has a z-score of -0.555. Compound `COC(=O)CN1C(=O)CC(C)(C)S(=O)c2ccccc21` (centres undefined) has a z-score of -0.197. In the case of `CC1CC(C)CN(S(=O)(=O)c2ccc(C(=O)NCc3ccc4c(c3)OCO4)cc2)C1` (centres undefined), the z-score was -0.0539. With `CC(C)Cc1cc(C(=O)Nc2sc3c(c2C#N)CCC3)no1` the z-score was 1.32. In the case of `CCc1ccc(C(=O)NC(CC(C)C)C(=O)O)cc1` (centres undefined), the z-score was -0.493. Compound `COc1ccc(Br)cc1CN1CCCCCCC1` has a z-score of 0.169. Compound `CN(C)c1cccc(NC2=CC(=[N+]3CCOCC3)CC(C)(C)C2)c1` has a z-score of 0.942. For `O=C(C1CCCCC1)N1CCCC(c2nc3c(nnn3Cc3ccccc3)c(=O)[nH]2)C1` (centres undefined), the z-score was 2.1. `COc1ccc(C2C(C(N)=O)=C(C)Nc3nc(-c4cccc(Cl)c4)nn32)cc1OC` (centres undefined) was tested, and the z-score was active: 4.01. In the case of `O=C(c1cccc(NS(=O)(=O)c2ccc(F)c(F)c2)c1)N1CCN(C(c2ccccc2)c2ccccc2)CC1`, the z-score was -0.189. In the case of `Cc1ccc(-n2nc3c(Cl)nnc(C)c3c2C)cc1`, the z-score was 0.701. Work on `C=CCNC(=O)C(=O)NCCOc1ccccc1Cl` yielded a z-score of -0.268. In the case of `Cc1cc([N+](=O)[O-])nn1Cc1c(F)c(F)c(F)c(F)c1F`, the z-score was -0.232. In the case of `COc1nc(Nc2cccc(C)c2)nc(N2CCCCC2)n1`, the z-score was -0.961. `COC(=O)c1cc2nc(-c3ccccc3)cc(C)n2n1` gave a z-score of 0.0407. `CCOC(=O)C1C(=O)C=C(c2ccc(C)cc2)CC1c1ccco1` (centres undefined) showed a z-score of -0.0925. In the case of `Cc1ccc(C)c(N2CCN(C(c3ccc(N(C)C)cc3)c3nnnn3C(C)(C)C)CC2)c1` (centres undefined), the z-score was -0.156. `CCS(=O)(=O)Nc1cccc(C(=O)CC2(O)C(=O)Nc3ccccc32)c1` (centres undefined) showed a z-score of -0.0365. For `Cc1cc(C)n(CC(=O)N/N=C/c2ccc3c(c2)OCO3)n1`, the z-score was -0.0715. `COc1ccc(N=c2cc(-c3ccc(O)cc3)oc3ccccc23)cc1` was tested, and the z-score was -0.0858. Compound `CCO/C(=C/c1sc2ccc(OC)cc2[n+]1CCCS(=O)(=O)[O-])CC` has a z-score of 0.262. Compound `O=C(/C=C/c1ccc(OCCCF)cc1)NCc1cccc(Cl)c1` has a z-score of -0.208. `Cc1cc(C)n2nc(SCC(=O)N(C)c3ccccc3)nc2n1` showed a z-score of -0.461. For `CSc1cccc(NC(=O)Nc2ccc(Cl)cc2)c1`, the z-score was -0.269. With `CC1CCCCN1S(=O)(=O)c1ccc2c(c1)CCN2C(=O)C1CCC1` (centres undefined) the z-score was -0.121. With `COc1ccc(C(=O)/C=C/Nc2c(C)n(C)n(-c3ccccc3)c2=O)cc1OC` the z-score was -0.0686. `CCOC(=O)c1[nH]c2ccc(OC)cc2c1NC(=O)CN1CCc2ccccc2C1` gave a z-score of -0.535. Work on `CCOC(=O)c1ccc(CNCc2ccccc2)cc1` yielded a z-score of -0.07. `CSc1nc2ccc(NC(=O)C3CCCO3)cc2s1` (centres undefined) gave a z-score of 0.644. Compound `CCOC(=O)CNc1nc(C#N)nc(N2CCOCC2)n1` has a z-score of -1.08. For `CCN(CC)c1ccc(/C=C2/C(=O)c3ccc(C(=O)O)cc3C2=O)cc1`, the z-score was -0.59. `O=C(Nc1nccs1)C1CCCN(S(=O)(=O)c2cccc3cccnc23)C1` (centres undefined) was tested, and the z-score was 1.94. With `COC(=O)c1c(NS(=O)(=O)c2ccc3ccccc3c2)sc2c1CCCC2` the z-score was 0.384. Compound `COc1ccccc1N1CCN(S(=O)(=O)c2cnc[nH]2)CC1` has a z-score of -0.154. In the case of `Cc1cccc(C(=O)NCCN2CCOCC2)c1[N+](=O)[O-]`, the z-score was -0.153. Compound `O=C(Cc1ccc2c(c1)OCCO2)N1CCN(S(=O)(=O)c2ccccc2C(F)(F)F)CC1` has a z-score of -0.0164. For `CC(=N/O)/C(=N\O)c1ccc(C)o1`, the z-score was 0.0642. `O=C(COC(=O)c1ccc(S(=O)(=O)N2CCCC2)cc1)NCc1ccc(F)cc1` gave a z-score of -0.114. Work on `CCOc1ccc(-c2nnc(-c3ccc(OC)cc3)o2)cc1` yielded a z-score of 0.396. For `COc1cccc(/C=N/Nc2ccc(S(=O)(=O)O)cc2)c1O`, the z-score was -0.129. With `C=CCN(C(=O)Nc1ccc(F)cc1)C1CC(=O)N(c2ccc(OC)cc2)C1=O` (centres undefined) the z-score was 0.0834. Compound `COc1ccc(S(=O)(=O)N2CCC(C(=O)Nc3cccc(C(C)=O)c3)CC2)cc1` has a z-score of -0.333. With `Cc1ccc(-c2nnn(CC(=O)N(CC3CCCO3)C(C(=O)NC(C)(C)C)c3ccc(F)cc3)n2)o1` (centres undefined) the z-score was -0.276.
